# Measurements published in the supplement of paper PMC8728848.
# The other results are listed elsewhere or left out.
# B1: CLECb-Precomplexed (Mus musculus), P43025 (protein)
# chain: MAKNGLVLCILVVSLLLDQTDGYPSRMKARKHSKRRVKAKDDDLKSQVEKLWREVNALKEMQALQTVCLRGTKVHKKCYLASEGLKHYHEANEDCISKGGTLVVPRNSDEINALRDYGKRSLPGVNDFWLGINDMVTEGKFLDVHGFAVSFLNWDRAQPSGGKRENCVLFSQSAQGKWSDEACRSSKRYICEFIIPTRTRPLEQKLISEEDLAANDILDYKDDDDKV
# What was measured:
# Assay in all cases: glycan array binding signal (z-score within array); higher = stronger binding
# Details in all cases: glycan notation: IUPAC condensed, linker removed
# [1] = target: Neu5Ac(a2-3)Gal(b1-3)GalNAc
# Method in brief: (§1)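 From the Consortium for Functional Glycomics database, 3228 arrays were curated, keeping only those whose protein sequence was available. Binding is given as a within-array Z-score averaged across arrays sharing a protein sequence and across linkers. Negative Z-scores can be read as non-binding.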
# [2] = target: Neu5Ac(a2-3)Gal(b1-3)GalNAc(b1-3)Gal(a1-4)Gal(b1-4)Glc
# Method in brief: as §1
# [3] = target: Neu5Ac(a2-3)Gal(b1-3)GalNAc(b1-4)[Neu5Ac(a2-3)]Gal(b1-4)Glc
# Method in brief: as §1
# [4] = target: Neu5Ac(a2-3)Gal(b1-3)GalNAc(b1-4)[Neu5Ac(a2-8)Neu5Ac(a2-3)]Gal(b1-4)Glc
# Method in brief: as §1
# [5] = target: Neu5Ac(a2-3)Gal(b1-3)GalNAc6S
# Method in brief: as §1
# [6] = target: Neu5Ac(a2-3)Gal(b1-3)GlcNAc
# Method in brief: as §1
# [7] = target: Neu5Ac(a2-3)Gal(b1-3)GlcNAc(b1-2)Man
# Method in brief: as §1
# [8] = target: Neu5Ac(a2-3)Gal(b1-3)GlcNAc(b1-2)Man(a1-3)[GlcNAc(b1-4)][Neu5Ac(a2-3)Gal(b1-3)GlcNAc(b1-2)Man(a1-6)]Man(b1-4)GlcNAc(b1-4)GlcNAc
# Method in brief: as §1
# [9] = target: Neu5Ac(a2-3)Gal(b1-3)GlcNAc(b1-2)Man(a1-3)[Neu5Ac(a2-3)Gal(b1-3)GlcNAc(b1-2)Man(a1-6)]Man(b1-4)GlcNAc(b1-4)GlcNAc
# Method in brief: as §1
# [10] = target: Neu5Ac(a2-3)Gal(b1-3)GlcNAc(b1-3)Gal(b1-3)GlcNAc
# Method in brief: as §1
# [11] = target: Neu5Ac(a2-3)Gal(b1-3)GlcNAc(b1-3)Gal(b1-4)GlcNAc
# Method in brief: as §1
# [12] = target: Neu5Ac(a2-3)Gal(b1-3)GlcNAc(b1-3)GalNAc
# Method in brief: as §1
# [13] = target: Neu5Ac(a2-3)Gal(b1-3)GlcNAc(b1-4)Gal(b1-4)Glc
# Method in brief: as §1
# [14] = target: Neu5Ac(a2-3)Gal(b1-3)GlcNAc(b1-6)GalNAc
# Method in brief: as §1
# [15] = target: Neu5Ac(a2-3)Gal(b1-3)GlcNAc6S
# Method in brief: as §1
# [16] = target: Neu5Ac(a2-3)Gal(b1-3)[Fuc(a1-4)]GlcNAc
# Method in brief: as §1
# [17] = target: Neu5Ac(a2-3)Gal(b1-3)[Fuc(a1-4)]GlcNAc(b1-3)Gal(b1-3)[Fuc(a1-4)]GlcNAc
# Method in brief: as §1
# [18] = target: Neu5Ac(a2-3)Gal(b1-3)[Fuc(a1-4)]GlcNAc(b1-3)Gal(b1-4)[Fuc(a1-3)]GlcNAc
# Method in brief: as §1
# [19] = target: Neu5Ac(a2-3)Gal(b1-3)[GlcNAc(b1-6)]GalNAc
# Method in brief: as §1
# [20] = target: Neu5Ac(a2-3)Gal(b1-3)[Neu5Ac(a2-6)]GalNAc
# Method in brief: as §1
# [21] = target: Neu5Ac(a2-3)Gal(b1-3)[Neu5Ac(a2-6)]GlcNAc(b1-3)[Fuc(a1-3)[Gal(b1-4)]GlcNAc(b1-6)]Gal(b1-4)Glc
# Method in brief: as §1
# [22] = target: Neu5Ac(a2-3)Gal(b1-3)]Neu5Ac(a2-3)Gal(b1-4)]GlcNAc
# Method in brief: as §1
# Neu5Ac(a2-3)Gal(b1-4)Glc = target: Neu5Ac(a2-3)Gal(b1-4)Glc
# Method in brief: as §1
# [23] = target: Neu5Ac(a2-3)Gal(b1-4)GlcNAc
# Method in brief: as §1
# [24] = target: Neu5Ac(a2-3)Gal(b1-4)GlcNAc(b1-2)Man
# Method in brief: as §1
# [25] = target: Neu5Ac(a2-3)Gal(b1-4)GlcNAc(b1-2)Man(a1-3)[GlcNAc(b1-4)][Neu5Ac(a2-3)Gal(b1-4)GlcNAc(b1-2)Man(a1-6)]Man(b1-4)GlcNAc(b1-4)GlcNAc
# Method in brief: as §1
# [26] = target: Neu5Ac(a2-3)Gal(b1-4)GlcNAc(b1-2)Man(a1-3)[Neu5Ac(a2-3)Gal(b1-4)GlcNAc(b1-2)Man(a1-6)]Man(b1-4)GlcNAc(b1-4)GlcNAc
# Method in brief: as §1
# [27] = target: Neu5Ac(a2-3)Gal(b1-4)GlcNAc(b1-2)Man(a1-3)[Neu5Ac(a2-3)Gal(b1-4)GlcNAc(b1-2)Man(a1-6)]Man(b1-4)GlcNAc(b1-4)[Fuc(a1-6)]GlcNAc
# Method in brief: as §1
# [28] = target: Neu5Ac(a2-3)Gal(b1-4)GlcNAc(b1-2)Man(a1-3)[Neu5Ac(a2-6)Gal(b1-4)GlcNAc(b1-2)Man(a1-6)]Man(b1-4)GlcNAc(b1-4)GlcNAc
# Method in brief: as §1
# [29] = target: Neu5Ac(a2-3)Gal(b1-4)GlcNAc(b1-2)[Neu5Ac(a2-3)Gal(b1-4)GlcNAc(b1-4)]Man(a1-3)[GlcNAc(b1-4)][Neu5Ac(a2-3)Gal(b1-4)GlcNAc(b1-2)[Neu5Ac(a2-3)Gal(b1-4)GlcNAc(b1-6)]Man(a1-6)]Man(b1-4)GlcNAc(b1-4)GlcNAc
# Method in brief: as §1
# [30] = target: Neu5Ac(a2-3)Gal(b1-4)GlcNAc(b1-2)[Neu5Ac(a2-3)Gal(b1-4)GlcNAc(b1-4)]Man(a1-3)[GlcNAc(b1-4)][Neu5Ac(a2-3)Gal(b1-4)GlcNAc(b1-4)Man(a1-6)]Man(b1-4)GlcNAc(b1-4)GlcNAc
# Method in brief: as §1
# [31] = target: Neu5Ac(a2-3)Gal(b1-4)GlcNAc(b1-2)[Neu5Ac(a2-3)Gal(b1-4)GlcNAc(b1-6)]Man(a1-6)[Neu5Ac(a2-3)Gal(b1-4)GlcNAc(b1-2)Man(a1-3)]Man(b1-4)GlcNAc(b1-4)GlcNAc
# Method in brief: as §1
# [32] = target: Neu5Ac(a2-3)Gal(b1-4)GlcNAc(b1-2)[Neu5Ac(a2-3)Gal(b1-4)GlcNAc(b1-6)]Man(a1-6)[Neu5Ac(a2-3)Gal(b1-4)GlcNAc(b1-2)Man(a1-3)][GlcNAc(b1-4)]Man(b1-4)GlcNAc(b1-4)GlcNAc
# Method in brief: as §1
# [33] = target: Neu5Ac(a2-3)Gal(b1-4)GlcNAc(b1-3)Gal
# Method in brief: as §1
# [34] = target: Neu5Ac(a2-3)Gal(b1-4)GlcNAc(b1-3)Gal(b1-3)GlcNAc
# Method in brief: as §1
# [35] = target: Neu5Ac(a2-3)Gal(b1-4)GlcNAc(b1-3)Gal(b1-4)GlcNAc
# Method in brief: as §1
# [36] = target: Neu5Ac(a2-3)Gal(b1-4)GlcNAc(b1-3)Gal(b1-4)GlcNAc(b1-2)Man(a1-3)[Neu5Ac(a2-3)Gal(b1-4)GlcNAc(b1-3)Gal(b1-4)GlcNAc(b1-2)Man(a1-6)]Man(b1-4)GlcNAc(b1-4)GlcNAc
# Method in brief: as §1
# [37] = target: Neu5Ac(a2-3)Gal(b1-4)GlcNAc(b1-3)Gal(b1-4)GlcNAc(b1-3)Gal(b1-4)GlcNAc
# Method in brief: as §1
# [38] = target: Neu5Ac(a2-3)Gal(b1-4)GlcNAc(b1-3)Gal(b1-4)GlcNAc(b1-3)Gal(b1-4)GlcNAc(b1-2)Man(a1-3)[Neu5Ac(a2-3)Gal(b1-4)GlcNAc(b1-3)Gal(b1-4)GlcNAc(b1-3)Gal(b1-4)GlcNAc(b1-2)Man(a1-6)]GalNAc
# Method in brief: as §1
# [39] = target: Neu5Ac(a2-3)Gal(b1-4)GlcNAc(b1-3)Gal(b1-4)GlcNAc(b1-3)GalNAc
# Method in brief: as §1
# [40] = target: Neu5Ac(a2-3)Gal(b1-4)GlcNAc(b1-3)Gal(b1-4)GlcNAc(b1-3)[Neu5Ac(a2-3)Gal(b1-4)GlcNAc(b1-3)Gal(b1-4)GlcNAc(b1-6)]GalNAc
# Method in brief: as §1
# [41] = target: Neu5Ac(a2-3)Gal(b1-4)GlcNAc(b1-3)Gal(b1-4)GlcNAc(b1-6)[Gal(b1-3)]GalNAc
# Method in brief: as §1
# [42] = target: Neu5Ac(a2-3)Gal(b1-4)GlcNAc(b1-3)Gal(b1-4)[Fuc(a1-3)]GlcNAc
# Method in brief: as §1
# [43] = target: Neu5Ac(a2-3)Gal(b1-4)GlcNAc(b1-3)GalNAc
# Method in brief: as §1
# [44] = target: Neu5Ac(a2-3)Gal(b1-4)GlcNAc(b1-3)[Neu5Ac(a2-3)Gal(b1-4)GlcNAc(b1-6)]GalNAc
# Method in brief: as §1
binder,measurement,setting,value
B1,glycan array binding signal (z-score),[1],-0.408
same,glycan array binding signal (z-score),[2],-0.16
same,glycan array binding signal (z-score),[3],-0.411
same,glycan array binding signal (z-score),[4],-0.49
same,glycan array binding signal (z-score),[5],-0.046
same,glycan array binding signal (z-score),[6],-0.576
same,glycan array binding signal (z-score),[7],-0.413
same,glycan array binding signal (z-score),[8],-0.444
same,glycan array binding signal (z-score),[9],-0.038
same,glycan array binding signal (z-score),[10],-0.296
same,glycan array binding signal (z-score),[11],-0.05
same,glycan array binding signal (z-score),[12],0.041
same,glycan array binding signal (z-score),[13],-0.678
same,glycan array binding signal (z-score),[14],1.23
same,glycan array binding signal (z-score),[15],0.185
same,glycan array binding signal (z-score),[16],-0.368
same,glycan array binding signal (z-score),[17],-0.228
same,glycan array binding signal (z-score),[18],0.002
same,glycan array binding signal (z-score),[19],-0.081
same,glycan array binding signal (z-score),[20],0.297
same,glycan array binding signal (z-score),[21],-0.391
same,glycan array binding signal (z-score),[22],-0.543
same,glycan array binding signal (z-score),Neu5Ac(a2-3)Gal(b1-4)Glc,-0.295
same,glycan array binding signal (z-score),[23],-0.249
same,glycan array binding signal (z-score),[24],-0.548
same,glycan array binding signal (z-score),[25],-0.227
same,glycan array binding signal (z-score),[26],-0.195
same,glycan array binding signal (z-score),[27],-0.424
same,glycan array binding signal (z-score),[28],-0.245
same,glycan array binding signal (z-score),[29],0.227
same,glycan array binding signal (z-score),[30],-0.337
same,glycan array binding signal (z-score),[31],0.667
same,glycan array binding signal (z-score),[32],0.259
same,glycan array binding signal (z-score),[33],0.468
same,glycan array binding signal (z-score),[34],-0.436
same,glycan array binding signal (z-score),[35],-0.359
same,glycan array binding signal (z-score),[36],-0.068
same,glycan array binding signal (z-score),[37],0.135
same,glycan array binding signal (z-score),[38],1.63
same,glycan array binding signal (z-score),[39],0.009
same,glycan array binding signal (z-score),[40],-0.181
same,glycan array binding signal (z-score),[41],-0.553
same,glycan array binding signal (z-score),[42],-0.288
same,glycan array binding signal (z-score),[43],-0.255
same,glycan array binding signal (z-score),[44],0.126
